Assay results taken from the supplement of paper PMC10928670.
MIC of N. gonorrhoeae strains collected 1971-2005, agar dilution (CLSI M07); ranges 0.03-64 mg/L (penicillin, azithromycin), 0.015-1 (cefixime, ceftriaxone), 0.5-256 (spectinomycin); higher = less susceptible. No active / inactive call per row; the paper counts cefixime and ceftriaxone above 0.25 and azithromycin above 1 mg/L as non-susceptible. The source says 'penicillin'; penicillin G is assumed. Isolates are numbered anew.

Experiments:
Experiment in all cases: Agar dilution by CLSI M07.
[1] = compound: C=CC1=C(C(=O)O)N2C(=O)[C@@H](NC(=O)/C(=N\OCC(=O)O)c3csc(N)n3)[C@H]2SC1 [cefixime]
[2] = compound: CC1(C)S[C@@H]2[C@H](NC(=O)Cc3ccccc3)C(=O)N2[C@H]1C(=O)O [penicillin G]
[3] = compound: CC[C@H]1OC(=O)[C@H](C)[C@@H](O[C@H]2C[C@@](C)(OC)[C@@H](O)[C@H](C)O2)[C@H](C)[C@@H](O[C@@H]2O[C@H](C)C[C@H](N(C)C)[C@H]2O)[C@](C)(O)C[C@@H](C)CN(C)[C@H](C)[C@@H](O)[C@]1(C)O [azithromycin]
[4] = compound: CN[C@@H]1[C@H](O)[C@H](NC)[C@H]2O[C@@]3(O)C(=O)C[C@@H](C)O[C@H]3O[C@@H]2[C@H]1O [spectinomycin]
[5] = compound: CO/N=C(\C(=O)N[C@@H]1C(=O)N2C(C(=O)O)=C(CSc3nc(=O)c(O)nn3C)CS[C@H]12)c1csc(N)n1 [ceftriaxone]

“Neisseria gonorrhoeae isolate 108 (GyrA: Wild type, ParC: Wild type, mtrR: -35A Del, G45D, penA: Type XII NonMosaic, A517G, ponA: L421P, porB: G120K, A121D)” was tested, and the MIC [1] was ≤ 0.015 µg/mL, the MIC [2] was 1 µg/mL and the MIC [3] was 0.06 µg/mL. For the same test system, the MIC [4] was 16 µg/mL and the MIC [5] was ≤ 0.015 µg/mL.
“Neisseria gonorrhoeae isolate 109 (GyrA: Wild type, ParC: Wild type, mtrR: -35A Del, G45D, penA: Type XIX NonMosaic, A517G, ponA: Wild type, porB: G120D, A121D)” was tested, and the MIC [1] was ≤ 0.015 µg/mL, the MIC [2] was 0.125 µg/mL and the MIC [3] was ≤ 0.03 µg/mL. For the same test system, the MIC [4] was 16 µg/mL and the MIC [5] was ≤ 0.015 µg/mL.
“Neisseria gonorrhoeae isolate 110 (GyrA: Wild type, ParC: Wild type, mtrR: -35A Del, penA: Type IV NonMosaic, A517G, G543S, ponA: L421P, porB: G120K, A121D)” was tested, and the MIC [1] was 0.06 µg/mL, the MIC [2] was 2 µg/mL and the MIC [3] was 0.25 µg/mL. The MIC [4] was 32 µg/mL and the MIC [5] was 0.125 µg/mL.
With “Neisseria gonorrhoeae isolate 111 (GyrA: Wild type, ParC: Wild type, mtrR: -35A Del, G45D, penA: Type II NonMosaic, A517G, ponA: L421P, porB: Wild type)” the MIC [1] was ≤ 0.015 µg/mL, the MIC [2] was 0.5 µg/mL and the MIC [3] was 0.125 µg/mL. The MIC [4] was 8 µg/mL and the MIC [5] was ≤ 0.015 µg/mL.
“Neisseria gonorrhoeae isolate 112 (GyrA: Wild type, ParC: Wild type, mtrR: A39T, penA: Type II NonMosaic, A517G, ponA: Wild type, porB: Wild type)” was tested, and the MIC [1] was ≤ 0.015 µg/mL, the MIC [2] was 0.125 µg/mL and the MIC [3] was ≤ 0.03 µg/mL. The MIC [4] was 16 µg/mL and the MIC [5] was ≤ 0.015 µg/mL.
For “Neisseria gonorrhoeae isolate 113 (GyrA: Wild type, ParC: Wild type, mtrR: -35A Del, G45D, penA: Type IX NonMosaic, A517G, ponA: L421P, porB: G120N, A121D)”, the MIC [1] was ≤ 0.015 µg/mL, the MIC [2] was 1 µg/mL and the MIC [3] was 0.5 µg/mL. For the same test system, the MIC [4] was 32 µg/mL and the MIC [5] was 0.03 µg/mL.
“Neisseria gonorrhoeae isolate 114 (GyrA: S91F, D95G, ParC: Wild type, mtrR: -35A Del, penA: Type V Nonmosaic, A517G, G543S, ponA: L421P, porB: G120K, A121D)” was tested, and the MIC [1] was 0.125 µg/mL, the MIC [2] was 4 µg/mL and the MIC [3] was 0.25 µg/mL. It also gave an MIC [4] of 16 µg/mL and an MIC [5] of 0.06 µg/mL.
In the case of “Neisseria gonorrhoeae isolate 115 (GyrA: Wild type, ParC: Wild type, mtrR: G45D, penA: Type XXII NonMosaic, A517G, ponA: L421P, porB: G120D)”, the MIC [1] is reported as ≤ 0.015 µg/mL, the MIC [2] is reported as 1 µg/mL and the MIC [3] is reported as 0.25 µg/mL. The MIC [4] was 32 µg/mL and the MIC [5] was ≤ 0.015 µg/mL.
For “Neisseria gonorrhoeae isolate 116 (GyrA: S91F, ParC: Wild type, mtrR: G45D, penA: Type IV NonMosaic, A517G, G543S, ponA: L421P, porB: G120K, A121D)”, the MIC [1] was 0.03 µg/mL, the MIC [2] was 2 µg/mL and the MIC [3] was 0.06 µg/mL. It also gave an MIC [4] of 16 µg/mL and an MIC [5] of 0.03 µg/mL.
For “Neisseria gonorrhoeae isolate 117 (GyrA: Wild type, ParC: Wild type, mtrR: G45D, penA: Type XXII NonMosaic, A517G, ponA: Wild type, porB: Wild type)”, the MIC [1] was ≤ 0.015 µg/mL, the MIC [2] was 0.5 µg/mL and the MIC [3] was 0.25 µg/mL. For the same test system, the MIC [4] was 8 µg/mL and the MIC [5] was ≤ 0.015 µg/mL.
“Neisseria gonorrhoeae isolate 118 (GyrA: Wild type, ParC: Wild type, mtrR: G45D, penA: Type XXII NonMosaic, A517G, ponA: Wild type, porB: Wild type)” was tested, and the MIC [1] was ≤ 0.015 µg/mL, the MIC [2] was 0.25 µg/mL and the MIC [3] was 0.06 µg/mL. The MIC [4] was 16 µg/mL and the MIC [5] was ≤ 0.015 µg/mL.
For “Neisseria gonorrhoeae isolate 119 (GyrA: D95G, ParC: Wild type, mtrR: Wild type, penA: Type I NonMosaic, ponA: Wild type, porB: Wild type)”, the MIC [1] was ≤ 0.015 µg/mL, the MIC [2] was 0.25 µg/mL and the MIC [3] was 0.06 µg/mL. For the same test system, the MIC [4] was 16 µg/mL and the MIC [5] was ≤ 0.015 µg/mL.
For “Neisseria gonorrhoeae isolate 120 (GyrA: Wild type, ParC: Wild type, mtrR: -35A Del, G45D, penA: Type XIX NonMosaic, A517G, ponA: L421P, porB: G120D, A121D)”, the MIC [1] was ≤ 0.015 µg/mL, the MIC [2] was 0.125 µg/mL and the MIC [3] was ≤ 0.03 µg/mL. The MIC [4] was 16 µg/mL and the MIC [5] was ≤ 0.015 µg/mL.
For “Neisseria gonorrhoeae isolate 121 (GyrA: Wild type, ParC: Wild type, mtrR: -35A Del, penA: Type XIII NonMosaic, A501V, A517G, ponA: Wild type, porB: G120K, A121D)”, the MIC [1] was 0.25 µg/mL, the MIC [2] was > 64 µg/mL and the MIC [3] was 0.25 µg/mL. The MIC [4] was 32 µg/mL and the MIC [5] was 0.125 µg/mL.
Work on “Neisseria gonorrhoeae isolate 122 (GyrA: Wild type, ParC: Wild type, mtrR: -35A Del, A39T, penA: Type IV NonMosaic, A517G, G543S, ponA: L421P, porB: Wild type)” yielded an MIC [1] of 0.125 µg/mL, an MIC [2] of 1 µg/mL and an MIC [3] of 0.125 µg/mL. The MIC [4] was 32 µg/mL and the MIC [5] was 0.125 µg/mL.
“Neisseria gonorrhoeae isolate 123 (GyrA: Wild type, ParC: Wild type, mtrR: -35A Del, G45D, penA: Type II NonMosaic, A517G, ponA: L421P, porB: G120N, A121D)” was tested, and the MIC [1] was ≤ 0.015 µg/mL, the MIC [2] was 0.125 µg/mL and the MIC [3] was ≤ 0.03 µg/mL. For the same test system, the MIC [4] was 16 µg/mL and the MIC [5] was ≤ 0.015 µg/mL.
